Drawing on PubChem BioAssay AID488969 (Vanderbilt High Throughput Screening Facility, 2010), this text covers z-score for 113 molecules.

Structures are written as SMILES. In all, about 110,000 compounds were measured (“z-score”: median about -0.1, highest 2% from about 2 on). The list shows a part of the results. Calls of active or inactive are those of the source.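 Rule for the calls: active = z-score in the third read window above 3 or below -3; inactive = the rest.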

The target in the assay is Metabotropic glutamate receptor 8 (Rattus norvegicus) (UniProt P70579). The assay can be described thus: rat mGluR8 modulators via GIRK flux, primary screen, cell-based, thallium flux, HTS (AID 488969). The conditions noted are these: HEK293 rat mGluR8, GIRK (G protein-gated inwardly rectifying potassium channel) thallium flux, FluoZin2; at 10 µM; stronger effect = higher value; submaximal glutamate (EC20) added with thallium.
UniProt P70579, sequence (P70579 whole entry, looked up): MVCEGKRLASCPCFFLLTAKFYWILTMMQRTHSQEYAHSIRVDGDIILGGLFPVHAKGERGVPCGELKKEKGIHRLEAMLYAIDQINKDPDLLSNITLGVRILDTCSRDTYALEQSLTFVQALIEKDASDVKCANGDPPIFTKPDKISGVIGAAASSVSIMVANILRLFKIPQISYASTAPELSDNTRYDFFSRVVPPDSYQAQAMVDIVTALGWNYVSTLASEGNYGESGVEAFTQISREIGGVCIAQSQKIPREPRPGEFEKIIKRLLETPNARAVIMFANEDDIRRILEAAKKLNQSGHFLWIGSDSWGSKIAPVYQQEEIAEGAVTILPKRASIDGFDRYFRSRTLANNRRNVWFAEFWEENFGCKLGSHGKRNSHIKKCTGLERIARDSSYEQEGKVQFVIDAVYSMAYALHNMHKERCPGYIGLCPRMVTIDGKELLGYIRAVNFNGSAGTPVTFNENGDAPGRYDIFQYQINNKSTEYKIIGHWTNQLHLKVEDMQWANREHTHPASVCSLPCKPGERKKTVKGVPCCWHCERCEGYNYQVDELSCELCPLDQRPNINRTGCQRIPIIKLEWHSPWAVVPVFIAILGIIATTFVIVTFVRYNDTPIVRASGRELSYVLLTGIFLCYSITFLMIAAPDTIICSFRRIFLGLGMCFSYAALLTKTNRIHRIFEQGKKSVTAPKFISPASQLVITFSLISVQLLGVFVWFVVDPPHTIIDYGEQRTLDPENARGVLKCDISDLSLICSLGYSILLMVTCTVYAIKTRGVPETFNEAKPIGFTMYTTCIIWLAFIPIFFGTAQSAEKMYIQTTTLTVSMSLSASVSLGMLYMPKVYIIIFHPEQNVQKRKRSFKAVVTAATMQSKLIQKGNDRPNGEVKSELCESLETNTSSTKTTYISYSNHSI
`CCOC(=O)c1ccc2nc(C)c(CCC(C)=O)c(Cl)c2c1` registered a z-score of -0.287. In the case of `COC(=O)CN(Cc1ccco1)S(=O)(=O)c1ccccc1` it was -0.329; in that of `Cc1cccc(NC(=O)CC2S/C(=N/c3nccs3)N(C)C2=O)c1` (stereo not drawn), -0.532; in that of `Cc1ccc(S(=O)(=O)N2CCCC2C(=O)NCCc2nc3ccccc3[nH]2)cc1` (stereo not drawn), 1.06. In the case of `O=C(CNC(=O)C1CCCCC1)Nc1ccc(Cl)cc1` it was -0.203; in that of `C/C(Cl)=C/Cn1c(NCCCn2ccnc2)nc2c1c(=O)[nH]c(=O)n2C`, 0.264; in that of `CC1CCN(S(=O)(=O)c2cnc(Cl)c(Br)c2)CC1`, -0.179. In the case of `O=C1NC2(CCCCC2)C(=O)N1c1ccccc1`, the z-score was -0.123. For `O=C(COC(=O)c1cnccn1)NCCc1ccccc1`, the z-score came to 0.028. The figure for `COc1cccc(C(C(=O)NC2CCCCC2)N(C(=O)c2cccs2)c2ccc3c(c2)OCO3)c1` (stereo not drawn) is -0.354; for `COc1ccccc1C(=O)O/N=C(/C)c1ccc(N2C(=O)C3CCCCC3C2=O)cc1` (stereo not drawn) it is -0.564; for `COC(=O)NNC(=O)CCCOc1ccc(Cl)cc1Cl` it is -0.164. The figure for `O=C(NCCSc1ccccc1)c1ccccc1Cl` is -0.112; for `Cc1ccc(-c2nc(C)sc2CC(=O)NCc2ccco2)cc1` it is 0.0357; for `Cc1ccc(C(=O)COC(=O)CNC(=O)c2ccco2)cc1` it is -0.0681. In the case of `O=c1oc2ccc3ccccc3c2cc1-c1nc2ccccc2o1` it was -0.182.

Molecule `Cc1ccc(S(=O)(=O)NC(=O)Nc2nnc(C3CC3)s2)cc1` came in with a z-score of -0.0905. `CN(C)Cc1ccccc1C1(O)c2ccccc2CSc2ccccc21` (stereo not drawn): the z-score is -0.164.

The molecule `Cc1ccc(C(NC(=O)/C=C\c2ccc3c(c2)OCO3)C(=O)Nc2ccc3c(c2)OCO3)cc1` (stereo not drawn) returned a z-score of -0.0804. The figure for `CCc1c(C)sc(NC(=O)c2cc(C)no2)c1C#N` is -0.236; for `Cc1ccc(-c2cc(C(=O)Nc3nn[nH]n3)c3ccccc3n2)c(C)c1` it is 0.047; for `CCCC1CCC(C(=O)Nn2cnc3ccccc3c2=O)CC1` (stereo not drawn) it is -0.146. The figure for `CCC1CCC/C1=N\NC(=O)c1cc(C)[nH]n1` (stereo not drawn) is -0.0339. The molecule `COc1ccc(C(=O)OCC(=O)NCc2ccco2)cc1OC` came in with a z-score of -0.196. In the case of `Cc1c(Cl)c([N+](=O)[O-])nn1CC(=O)Nc1c(C)n(C)n(-c2ccccc2)c1=O` it was -0.0515; in that of `Cc1ccc(-c2nc(C3CCN(S(C)(=O)=O)CC3)no2)cc1`, -0.0456. With `COc1ccc(-c2c3c(=O)n(C)c(=O)n(C)c3cn2-c2ccccc2)cc1`, the z-score is -2.16. In turn, `CCN1CCc2c(sc(NC(=O)Nc3ccc(Cl)c(Cl)c3)c2C(N)=O)C1` returned a z-score of -0.495. Regarding `CCN(CCCNC(=O)c1cn(CC)c2ccc(S(=O)(=O)N(C)C)cc2c1=O)c1cccc(C)c1`, the z-score was -2.3.

Take `COc1ccc(/C=C/C(=O)NC(=S)Nc2ccc(S(=O)(=O)Nc3ccc(OC)nn3)cc2)cc1`: the z-score is -0.281. In the case of `COc1ccc(C(=O)Nc2cc(Cl)cc(Cl)c2)c(OC)n1` it was -0.0898.

Regarding `O=C(Nc1ccccc1)N1C2CCC1CC(O)(c1cccnc1)C2` (stereo not drawn), the z-score is -0.144. In the case of `CCN(CC)CC(C(=O)N(CC)CC)P(=O)(c1ccccc1)c1ccccc1` (stereo not drawn), the z-score was -0.228. The figure for `O=C(O)c1ccc2c(c1)C(=O)N(NC(=O)c1ccccc1)C2=O` is -0.346. The figure for `CC(=O)N1CCN(c2ccc(NC(=O)c3cccc(OCc4ccccc4)c3)cc2)CC1` is 0.0391; for `Cc1cc(C)c2c(n1)nn1c(-n3ccnc3)cc(C)nc21` it is -0.277.

With `COc1ccc(C(=O)Oc2ccc(/C=N/NC(=O)c3ccccc3OC)cc2[N+](=O)[O-])cc1`, the z-score was determined as 0.0678. The figure for `S=C(Cc1cccnc1)N1CCOCC1` is -0.155; for `CCCC(O)(CCC)C(=O)NN(C(=O)OC)c1ccccc1` it is -0.128. In the case of `Cc1csc(C(=O)O)c1-n1cccc1` it was -0.27; in that of `CCc1nnc(NC(=O)C2CC(=O)N(c3ccc(C)cc3)C2)s1` (stereo not drawn), 0.00239.

Molecule `Cc1ccc(C(=O)N/C(=C/c2cccs2)C(=O)NCc2ccco2)cc1` displayed a z-score of -0.165.

Take `Cc1c(Br)cc(C(=O)OC2CCN(C)CC2)c(C)c1C`: the z-score was 1.02. For the molecule `Cc1ccc(C)n1-c1ccc(N2CCOCC2)c(Br)c1`, the z-score was -0.0836. The figure for `COc1ccc(OC)c(/C(O)=C/C(=O)C(=O)Nc2cc(C)ccc2OC)c1` is 0.612; for `Cc1ccc2nc(SCC(=O)N3c4ccccc4CC3C)c(C)cc2c1` (stereo not drawn) it is -0.0416. In turn, `O=C(Cc1ccccc1)NCC1COc2ccccc2O1` (stereo not drawn) had a z-score of -0.147. The figure for `Cc1cc(C)n(-c2ncnc3c2oc2ccccc23)n1` is 0.121; for `O=C(CC1CCCCC1)c1c(O)c2ccccc2oc1=O` it is -0.995; for `c1ccc2c(c1)CNc1ccccc1C2` it is -0.154. The figure for `CCN(CC)S(=O)(=O)c1cc(C(=O)OCC(=O)NC2CCCc3ccccc32)ccc1C` (stereo not drawn) is -0.154; for `Cc1ccccc1S(=O)(=O)Nc1ncnc2scc(-c3ccccc3)c12` it is 0.207.

The molecule `Cc1cc(Nc2cccc(F)c2)nc(-c2ccccc2O)n1` yielded a z-score of 0.838. `Cc1ccc(C)c(OCC(=O)Nc2nonc2NC(=O)COc2cc(C)ccc2C)c1` registered a z-score of -0.394. In the case of `COC(=O)c1ccc(NC(CC(C)C)C(=O)OC)c([N+](=O)[O-])c1` (stereo not drawn) it was 1.05; in that of `O=C(NCCN1CCOCC1)C1CCC(=O)N1C1CCCCC1` (stereo not drawn), 0.44. The figure for `CC(=O)Nc1cccc(-c2csc(Nc3cc(C)ccn3)n2)c1` is -0.78. Take `Cc1nc2ccccc2cc1C(=O)N/N=C/c1cccs1`: the z-score was -0.0999.

The molecule `CCOC(=O)c1cnc(-c2ccccc2)nc1N` registered a z-score of 0.276. In the case of `Cc1ccc2nc(-c3ccc(NC(=O)CSc4ccccc4)cc3)[nH]c2c1` it was -0.129; in that of `CCN(C(=S)Nc1ccccc1F)C1CCCCC1`, 0.0708; in that of `Cc1cccc(-c2noc(CCc3ccccc3)n2)c1`, 0.142. The figure for `Cc1ccc(S(=O)(=O)N2CCN(c3cc4c(cc3[N+](=O)[O-])n(C)c(=O)n4C)CC2)cc1` is -0.078. In the case of `O=C(CSC1=NS(=O)(=O)c2ccccc21)Nc1ccccc1` it was -0.326; in that of `COCCN1Cc2cccc(C(=O)NCc3cccnc3)c2C1=O`, 0.092; in that of `CCOC(=O)c1sc(NC(=O)CN(CC(C)C)CC(C)C)c(C(=O)OCC)c1C`, -0.407. In the case of `CCN(CC)CC(O)COCCC12CC3CC(CC(C3)C1)C2` (stereo not drawn), the z-score was active: 3.04.

`CSc1ccccc1NC(=O)c1cccnc1` returned a z-score of 0.499. Turning to `COc1ccc(CN2C(=O)c3ccccc3C2C(=O)NCc2cccnc2)c(OC)c1` (stereo not drawn), the z-score was 0.294. The figure for `Oc1ccc(-c2n[nH]c(=S)n2Cc2ccco2)cc1` is -0.11; for `CCOC(=O)c1c(NC(=O)CSc2nncs2)sc(C)c1-c1ccccc1` it is -0.117. The figure for `O=C(Cc1ccc(Nc2nc3ccc(Br)cc3[nH]2)cc1)NCCc1cccs1` is -0.267; for `COC(=O)c1ccccc1NC(=O)CCc1ccccc1` it is -0.362. As to `CCCc1nnc(SCC(=O)N2CCOCC2)n1C`, the z-score worked out at 0.442. `C/C(=N\NC(=O)c1ccccc1C)c1cccc([N+](=O)[O-])c1` displayed a z-score of -0.192. In the case of `O=C(c1ccc(F)cc1)N1CCC(N2CCOCC2)CC1` it was 0.111; in that of `CCc1c(OC(C)=O)c2ccccc2n(C)c1=O`, -0.868. `O=C(CSc1n[nH]c(C2CCCC2)n1)NC1CCCC1` came in with a z-score of 0.823.

`O=C(COC(=O)c1cccc2ccccc12)Nc1ncc(C(F)(F)F)cc1Cl`: the z-score turned out to be 0.271. In the case of `CCSc1ncnc2sc(C)c(C)c12` it was -0.112.

In turn, `Cc1noc(C(=O)Nc2c(C)nn(Cc3ccccc3)c2C)c1Cl` had a z-score of -0.922. The figure for `CCOc1ccc(NC(=S)N2CCC(N(C)CCN3CCOCC3)CC2)cc1` is -0.0503. Molecule `COC(=O)c1ccccc1NC(=O)CSc1nnc(C(C)NC(=O)c2ccc(Cl)cc2Cl)n1C` (stereo not drawn) came in with a z-score of -0.955. The figure for `COc1ccc(OC)c(C(=O)CSc2nnc(-c3ccc(OC)c(OC)c3)o2)c1` is -0.145; for `Cn1c(CO)c(-c2ccccc2)c2cc([N+](=O)[O-])ccc21` it is -0.621; for `Nc1cccc(-c2nc3ccccc3s2)c1` it is -0.176.

Take `CC(C)(C)NCC(O)COCc1ccc(Cl)cc1` (stereo not drawn): the z-score was -0.278. The figure for `Cc1cc(C(=O)COC(=O)Cc2n[nH]c(=O)c3ccccc23)c(C)n1-c1ccc2c(c1)OCO2` is -1.33; for `COc1ccc(S(=O)(=O)Nc2ccc3c(c2)OCO3)cc1Cl` it is 0.238. `Cc1ccc(-c2nc3cnccn3c2Nc2ccccc2)o1` registered a z-score of -0.467. In the case of `O=C(Nc1ccccc1)Nc1cccc2cccnc12` it was -0.499; in that of `Cn1c(=O)c2c(nc(SCC(=O)NCc3ccc4c(c3)OCO4)n2Cc2ccc(F)cc2)n(C)c1=O`, 0.172; in that of `COc1ccccc1CC(=O)NC1CC(C)(C)NC(C)(C)C1`, 1.1.

In turn, `c1ccc(OCc2nc(-c3ccccc3)no2)cc1` showed a z-score of 0.568. The figure for `O=C(CSc1ccc(C(F)(F)F)cc1[N+](=O)[O-])Nc1ccccc1` is 1.52.

For the molecule `CC1Cc2ccccc2N1C(=O)CSc1nc(-c2ccco2)cc(C(F)(F)F)n1` (stereo not drawn), the z-score is -0.351. In the case of `CC(C)(C)C(=O)NC(NC(=S)Nc1ccc(S(N)(=O)=O)cc1)C(Cl)(Cl)Cl` (stereo not drawn) it was -0.298; in that of `COc1ccc(C2C3=C(CCCC3=O)Nc3nc(SCc4ccc(C(=O)O)cc4)nn32)cc1OC` (stereo not drawn), 0.221; in that of `Nc1nc2c(F)cccc2s1`, -0.0918. In the case of `O=C1CCCc2c1sc1nc3n(c(=O)c21)CCCCC3` it was -0.0924; in that of `CCC(Oc1cc(Cl)ccc1Cl)C(=O)NN1C(=O)C2C3CCC(C3=C(C)C)C2C1=O` (stereo not drawn), -0.284; in that of `Cc1ccccc1N(C(=O)Cc1ccsc1)C(C(=O)NC1CCCCC1)c1ccc(F)cc1` (stereo not drawn), -0.419. In the case of `Cc1cc(C(=O)COC(=O)CNS(=O)(=O)c2ccc3ccccc3c2)c(C)n1-c1ccccc1` it was -0.132; in that of `CCOC(=O)C1CCCN(C(=O)CS(=O)(=O)Cc2ccccc2)C1` (stereo not drawn), 0.403.

On to `COc1ccc(/C=N/NC(=O)c2ccn[nH]2)cc1COc1ccc(F)cc1`, for which the z-score was -0.228. `COC(=O)CCP(=O)(O)Cc1ccccc1CP(=O)(O)CCC(=O)OC` had a z-score of 0.00641. The figure for `c1ccc(-c2cn3nc4c(nc3n2)CCCC4)cc1` is 0.758. In the case of `Fc1ccc(CNc2nc3ccccc3n3cnnc23)cc1` it was -0.283; in that of `COc1ccc(OC)c(NC(=O)CCn2cccc2)c1`, -0.233. The figure for `CC1CCCN(CC(O)COCC2COc3ccccc3O2)C1` (stereo not drawn) is 0.163.

Regarding `COc1ccc(CC(=O)N2CCCC(C)C2)cc1` (stereo not drawn), the z-score was -0.338. In the case of `O=C(C[n+]1cc(-c2ccc(Cl)c(Cl)c2)n2c1CCC2)N1c2ccccc2Sc2ccccc21` it was -0.605. The figure for `C=C(C)CSc1nnc([C@@H](NC(=O)OC(C)(C)C)C(C)CC)o1` (stereo partly drawn) is -0.0912.
